From the supplement of paper PMC12217912
The list shows a part of the results. Sequences were assembled here from the parent chain. Values near 0.05 are background.

B1: TEV protease; numbered along this chain (parent)
chain: MGESLFKGPRDYNPISSSICHLTNESDGHTTSLYGIGFGPFIITNKHLFRRNNGTLVVQSLHGVFKVKDTTTLQQHLVDGRDMIIIRMPKDFPPFPQKLKFREPQREERICLVTTNFQTKSMSSMVSDTSCTFPSGDGIFWKHWIQTKDGQCGSPLVSTRDGFIVGIHSASNFTNTNNYFTSVPKNFMELLTNQEAQQWVSGWRLNADSVLWGGHKVFMVKPEEPFQPVKEATQL

Variants of: B1
Assay: raw area under fraction-flipped curve 0-4 h after induction (AUC4h, not background-subtracted), DNA-recorder readout of cleavage of the substrate (dimensionless); higher = more cleavage of the substrate by the protease variant
Settings: temperature: 34 °C; time window: 0-4 h after rhamnose induction
Method: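 In vivo DNA recorder in E. coli TOP10(DE3) ΔrhaA at 34 °C. Each TEVp single-site mutant (parent TEVp 0) is paired with a single-site variant of the 7-mer TEVs (canonical ENLYFQ|S). The substrate sits between flexible linkers in a Bxb1-sfGFP-TEVs-SsrA fusion, so cleavage stabilises Bxb1 and speeds flipping of a recombination array, read by NGS. The value is the raw area under the fraction-flipped curve over 0-4 h after rhamnose induction (AUC4h), with ≥20 reads per time point. It is not background-subtracted; inactive controls average about 0.047.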
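Note: Bxb1 expression induced with 0.2% (w/v) L-rhamnose at OD600 near 0.5, cultures sampled hourly, flipped fraction per protease–substrate barcode pair counted by paired-end Illumina sequencing.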

Variant	area with substrate ENLYAQS	area with substrate ENLYDQS	area with substrate ENLYEQS	area with substrate ENLYHQS	area with substrate ENLYIQS	area with substrate ENLYKQS	area with substrate ENLYMQS	area with substrate ENLYNQS	area with substrate ENLYPQS	area with substrate ENLYQQS	area with substrate ENLYRQS	area with substrate ENLYVQS	area with substrate ENLYWQS	area with substrate ENLYYQS	area with substrate ENLYGQS	area with substrate ENLYSQS	area with substrate ENLYTQS	area with substrate ENLYLQS	area with substrate ENLYCQS
F187N	0.0546	0.0512	0.0576	0.0411	0.0515	0.0604	0.0481	0.0427	0.0527	0.0448	0.0514	0.0347	0.0548	0.0494	–	–	–	–	–
Q105G	0.0636	0.0539	0.0692	0.0634	0.113	0.0634	0.0695	0.0743	0.0727	0.0559	–	–	0.0669	0.0729	0.0557	0.0741	0.0812	–	–
E223R	0.0562	0.0752	0.0638	0.0674	–	0.0605	0.0826	0.0752	0.09	0.0834	–	0.0455	–	0.0758	0.0573	0.069	0.0987	0.0859	–
R106W	0.0676	0.0692	0.0595	0.067	0.109	0.0576	0.079	0.0703	0.0673	0.0679	0.0566	0.0724	0.0937	0.0794	0.0692	0.0817	0.0718	0.0846	0.0791
D137C	0.0633	0.0582	0.0629	0.0647	0.0923	0.0578	–	0.0699	–	–	–	0.108	0.0729	0.0607	0.0742	–	–	–	–
L190G	0.0729	0.0417	0.0605	0.051	0.0772	0.0808	0.0599	0.0736	–	0.0629	0.0743	0.107	0.0738	–	–	0.0649	0.0775	0.0508	–
A196I	0.0773	0.0557	0.0695	0.0603	–	0.0652	0.0911	0.0708	0.0756	0.0454	0.0563	0.11	0.0853	0.0647	–	0.0696	–	0.0782	0.0951
N175Y	0.0746	0.0575	0.0547	0.0572	–	–	–	0.0605	0.0835	0.0623	0.0598	0.0967	0.0707	0.0673	0.0622	0.0752	–	–	–
G213W	0.0633	–	0.0435	0.0574	0.0345	0.0335	0.0504	0.0615	0.0578	0.0419	0.0573	0.0612	0.0527	–	0.0588	0.0621	0.0651	0.06	0.0486
N45K	0.0731	–	0.0579	0.0579	0.0549	0.0273	0.0594	0.0553	0.0444	0.0573	0.0591	–	0.066	0.0549	–	0.0545	–	–	–
D79I	0.0823	–	–	–	0.0977	0.03	0.0787	–	–	0.0473	0.0567	–	0.0637	0.0553	–	–	0.0633	–	–
F173S	0.019	0.0624	0.0615	0.0605	–	0.0623	0.0534	0.0664	0.0511	0.0596	0.0482	0.11	–	–	–	0.073	0.0587	–	0.0773
